Laboratory results as given in PMC4336329 (PLoS ONE, 2015).
In all, about 310,000 compounds went through this assay and about 14,000 (4.5%) showed an effect of 50% or more. Effects have a minus sign here. This is one part of the list.

Each molecule was assayed against human ether-à-go-go-related gene (hERG) potassium channel (human, UniProt Q12809) (assay: primary screen, population patch clamp on CHO cells stably expressing hERG).
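Note: peak tail current of the secondary pulse compared with the same well before compound.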

human ether-à-go-go-related gene (hERG) potassium channel, sequence (Q12809 whole entry, looked up): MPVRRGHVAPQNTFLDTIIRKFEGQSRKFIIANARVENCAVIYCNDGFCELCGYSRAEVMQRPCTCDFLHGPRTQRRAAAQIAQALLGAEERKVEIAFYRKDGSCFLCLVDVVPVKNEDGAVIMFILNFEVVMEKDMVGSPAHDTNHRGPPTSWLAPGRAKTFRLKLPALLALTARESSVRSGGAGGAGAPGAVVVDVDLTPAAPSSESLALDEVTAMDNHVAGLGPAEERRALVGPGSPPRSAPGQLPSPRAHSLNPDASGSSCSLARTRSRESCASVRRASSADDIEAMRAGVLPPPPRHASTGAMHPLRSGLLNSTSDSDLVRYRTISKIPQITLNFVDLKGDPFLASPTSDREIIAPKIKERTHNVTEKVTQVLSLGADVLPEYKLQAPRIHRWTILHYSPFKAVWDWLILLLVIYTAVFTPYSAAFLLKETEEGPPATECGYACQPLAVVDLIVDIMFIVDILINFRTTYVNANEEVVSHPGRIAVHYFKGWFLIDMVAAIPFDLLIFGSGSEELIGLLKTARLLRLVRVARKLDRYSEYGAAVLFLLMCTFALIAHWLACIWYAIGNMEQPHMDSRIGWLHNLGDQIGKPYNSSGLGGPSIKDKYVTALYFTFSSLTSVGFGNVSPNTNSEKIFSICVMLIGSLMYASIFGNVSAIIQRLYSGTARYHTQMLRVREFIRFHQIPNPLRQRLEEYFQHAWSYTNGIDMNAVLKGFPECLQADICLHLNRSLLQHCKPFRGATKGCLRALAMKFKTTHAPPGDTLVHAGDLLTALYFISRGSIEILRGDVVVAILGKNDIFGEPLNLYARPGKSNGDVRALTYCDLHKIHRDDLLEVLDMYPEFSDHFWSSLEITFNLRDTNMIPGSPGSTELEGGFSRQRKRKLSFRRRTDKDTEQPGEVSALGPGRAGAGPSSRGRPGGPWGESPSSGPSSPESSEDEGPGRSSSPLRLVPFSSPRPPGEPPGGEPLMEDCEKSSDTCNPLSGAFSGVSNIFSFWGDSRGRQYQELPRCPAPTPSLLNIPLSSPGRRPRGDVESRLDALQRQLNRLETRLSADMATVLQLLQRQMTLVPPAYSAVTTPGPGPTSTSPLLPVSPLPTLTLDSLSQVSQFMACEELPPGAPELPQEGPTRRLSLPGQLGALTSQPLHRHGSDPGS

| Compound | hERG current change (%, negative = inhibition) at 10uM |
| --- | --- |
| Cc1csc(NC(=O)CCC(=O)c2cccs2)n1 | -13.1% |
| Cc1ccc(N2C(=O)N3[C@H]4c5ccccc5OC[C@@H]4[C@@H](c4ccccc4)[C@@]3(C)C2=O)cc1 | 12.8% |
| Cc1cccc(C(=O)NCCNC(=O)c2cnccn2)c1 | 12.8% |
| Cc1ccc(NC(=O)COc2coc(CN3CCc4ccccc4C3)cc2=O)cc1Cl | 3.84% |
| O=C(Cc1n[nH]c(=O)c2ccccc12)Nc1cccc(S(=O)(=O)N2CCCC2)c1 | -5.36% |
| O=S(=O)(Nc1cccc(CCc2ccccn2)c1)c1cc(Cl)ccc1Cl | -6.71% |
| CCC(C)NC(=O)c1ccccc1NC(=O)C1COc2ccccc2O1 (centres unmarked) | 6.82% |
| CC(C(=O)Nc1ccc(C#N)cc1)N(C)Cc1cccs1 (centres unmarked) | -56.7% |
| O=C(c1ccc(-n2cccn2)cc1)N1CCN(c2ncccc2C(F)(F)F)CC1 | -60.4% |
| O=C(OCc1cc2ccccc2[nH]c1=O)C1CCCCC1 | 4.18% |
| COc1ccc(C2(C(=O)NCc3ccccc3Cl)CCOCC2)cc1OC | -8.24% |
| COc1ccc(OC)c(S(=O)(=O)N2CCC(C(=O)NCCc3ccc(OC)c(OC)c3)CC2)c1 | -4.02% |
| COC(=O)C1=C(C(=O)OC)[C@@H]2N(C)c3ccc(OC)cc3[C@@]23C[C@@H](C(=O)OC)N(C(=O)CC(C)C)C3=N1 | -14.9% |
| CCOC(=O)C1=C(c2ccccc2)NC(=S)NC1c1ccc(Cl)cc1 (centres unmarked) | 0.162% |
| CCN(CC)S(=O)(=O)c1cccc(NC(=O)CSc2nnc(N)s2)c1 | 14.9% |
| COc1cc(CN2CCNC(=O)C2CC(=O)N2CCCN(C(C)=O)CC2)cc(OC)c1 (centres unmarked) | 9.18% |
| CCOC(=O)/C=C1\CN(Cc2cc(OC)c(OC)c(OC)c2)S(=O)(=O)c2ccc(C(F)(F)F)cc21 | -11.3% |
| C=CCNC(=O)C1CCN(c2c([N+](=O)[O-])cc(C(F)(F)F)cc2[N+](=O)[O-])CC1 | 10% |
| COC(=O)c1ccc(N2CCN(CCNC(=O)Nc3ccc(OC)cc3)CC2)cc1 | -0.192% |
| Cc1ccc(SC(C)C(=O)Nc2ccc(S(=O)(=O)N3CCOCC3)cc2)cc1 (centres unmarked) | -31.9% |
| O=S(=O)(c1ccc(F)cc1)N1CCCC1c1cccnc1 (centres unmarked) | 3% |
| COc1ccsc1C(=O)Nc1ccc(F)cc1F | 2.66% |

| Compound | hERG current change (%, negative = inhibition) at 10uM |
| --- | --- |
| CCC(=O)NC(=S)Nc1ccc(NC(=O)c2cccnc2)cc1 | 5.3% |
| CCC1CCC(C(=O)NC(C(=O)Nc2ccc3c(c2)OCCO3)C(C)C)CC1 (centres unmarked) | 2.88% |
| COC(=O)c1ccc(NC(=O)C2CCCCC2C(=O)O)cc1 (centres unmarked) | 21.9% |
| COc1cc2nc(N3CCN(c4cc(C)ccc4C)CC3)nc(N)c2cc1OC.Cl | -35.6% |
| CCCCCCn1c(N(CC)CC)nc2c1c(=O)[nH]c(=O)n2C | -63.6% |
| O=C1CC(N2CCN(c3cccc(C(F)(F)F)c3)CC2)C(=O)N1c1ccccc1F (centres unmarked) | -18% |
| COc1ccc(-n2cnc3cc(NS(=O)(=O)c4ccccc4)ccc32)cc1 | 7.83% |
| CCOC(=O)/C(C#N)=C/c1cc2cc(C)c(C)cc2nc1Cl | 7.18% |
| COc1cccc(CNC(=O)COc2ccc(C(=O)c3ccccc3)cc2)c1 | -11.7% |
| CC(=O)c1sc(C(=O)O)c(-c2ccco2)c1-c1ccco1 | 10.8% |
| COCc1c(C(=O)NCCOc2ccc(Cl)cc2)oc2ccccc12 | -6.33% |
| Cc1cccc(OCC(=O)OCC(=O)c2c(N)n(C)c(=O)n(C)c2=O)c1C | -1.84% |
| O=C(NCc1cccs1)c1ccc(N2CCCC2=O)cc1 | 5.44% |
| O=C(O)Cc1ccc2sc(-c3ccccc3)nc2c1 | 17.1% |
| CC(C)CCC(C(=O)[O-])C(C)CC(=O)NNC(=O)c1ccco1.[Na+] (centres unmarked) | 5.43% |
| Cc1ccc(C(=O)c2c(NC(=O)CSc3nnc(N)s3)sc3c2CCCC3)cc1 | 1.21% |
| N#Cc1ccc2c(c1)nnn2-c1ccccc1 | 1.85% |
| O=C(COC(=O)C1(c2ccc(Cl)cc2)CCCC1)Nc1ncc(C(F)(F)F)cc1Cl | -11.9% |
| O=C(NN1CCOCC1)c1cccc(F)c1 | 12.8% |
| COCCN(C(=O)CSc1nnc(-c2ccccc2F)n1C)c1c(N)n(Cc2ccccc2)c(=O)[nH]c1=O | 12.1% |
| COc1ccc(NC(=O)c2ccccc2Oc2ccccc2)cc1 | 2.68% |
| Cc1cccc(C)c1OCC(O)CN1CCC(CN2C(=O)c3cccc4cccc(c34)C2=O)CC1.Cl (centres unmarked) | -76.2% |

| Compound | hERG current change (%, negative = inhibition) at 10uM |
| --- | --- |
| O=C(NCCCn1ccnc1)Nc1ccc(Cl)cc1Cl | -13.9% |
| COc1ccc(S(=O)(=O)Nc2ccccc2C(=O)NCc2cccnc2)cc1C | -24.8% |
| COC(=O)C1=C(C)N(Cc2ccco2)C(=O)N[C@@H]1c1cccc(C(F)(F)F)c1 | 0.604% |
| Cc1cc2nc3c(=O)[nH]c(=S)[nH]c3nc2cc1NC(=O)C(F)(F)F | 30.4% |
| O=C(/C=C/c1ccccc1F)N1CCN(c2ccccn2)CC1 | -18.7% |
| O=C(COc1cccnc1[N+](=O)[O-])c1ccc(Cl)s1 | 20.9% |
| COc1ccccc1CCC(=O)Nc1ccc(C)cc1Cl | 11.4% |
| CCC1(c2ccccc2)NC(=O)N(CC(=O)c2ccc3c(c2)OCO3)C1=O (centres unmarked) | -4.15% |
| CN1CCc2c(OCC(=O)N3CCCc4ccccc43)cccc2C1=O | 5.9% |
| C[n+]1c(-c2ccccc2)cc(-c2ccc(O)cc2)cc1-c1ccccc1.[O-][Cl+3]([O-])([O-])[O-] | -61.4% |
| CCOC(=O)C1=C(COC(=O)c2ccccc2[N+](=O)[O-])NC(=O)NC1C (centres unmarked) | 22.3% |
| CN(C)c1nc(C#N)nc(N(C)C)n1 | 18% |
| Cc1ccc(N2CCCCn3c2nc2c3c(=O)n(CC(=O)O)c(=O)n2C)cc1 | 16.7% |
| NC(=O)c1sc2nc3c(c(-c4ccccc4)c2c1N)CCC3 | -18.4% |
| Cc1ccc(S(=O)(=O)NCCC(=O)OCC(=O)N(Cc2ccccc2)C(C)(C)C)cc1 | 1.63% |
| Cc1cccc(C)c1NC(=O)CN1C(=O)N(C)Cc2ccccc21 | 20.1% |
| N#Cc1cccc(C(c2nnnn2CCc2ccccc2)N2CCN(C3CCCCC3)CC2)c1 (centres unmarked) | -61% |
| COc1ccc(C)cc1N(C(=O)CNC(=O)c1ccco1)C(C(=O)NC1CCCC1)c1cccnc1 (centres unmarked) | 26.3% |
| CC(C)Sc1snnc1-c1ccccc1 | 14.3% |
| COc1ccc(/C=N/NC(=O)c2ccccc2)cc1OS(=O)(=O)c1ccccc1 | -3.53% |
| COc1cccc(C2(O)CCN(C(=O)C3CC3)CC2)c1 | 13% |
| COc1cccc(N2CC(C(=O)Nc3nnc(SCC(=O)N4CCCC4)s3)CC2=O)c1 (centres unmarked) | 11% |

| Compound | hERG current change (%, negative = inhibition) at 10uM |
| --- | --- |
| O=C(C1=C(O)C(=O)N(CC2CCCO2)C1c1ccc(Cl)cc1)c1ccco1 (centres unmarked) | 12.3% |
| CC(C)(C)OC(=O)N1CCOCCOCCN(C(=O)OC(C)(C)C)CCOCCOCC1 | 7% |
| Cc1cc(=O)oc2cc(OCc3ccc(C(=O)OCC(=O)Nc4ccccc4OC(F)F)cc3)ccc12 | 8.79% |
| O=S(=O)(NCCc1csc(-c2cccnc2)n1)c1ccc(F)cc1 | -9.39% |
| O=C(Nc1ccc(C(=O)N2CCOCC2)cc1)c1cccc(Br)c1 | 3.11% |
| CC1CC(=O)Nc2ccccc2N1C(=O)CSc1nnnn1C(C)C (centres unmarked) | 0.74% |
| C=C(C(=O)c1ccccc1)C(C(=C)C(=O)c1ccccc1)c1ccc(OC)cc1 | 0.181% |
| COc1ccc(C(=S)N(C)C)cc1OC | 8.27% |
| O=[N+]([O-])c1ccc(COc2ncnc3ccccc23)cc1 | -45.3% |
| C=C(C)CSc1nc2c(c(=O)[nH]c(=O)n2C)n1CCC(C)C | -15.9% |
| O=C(Nc1nccs1)C(=O)c1c[nH]c2ccccc12 | 24.5% |
| COc1cc2cc(-c3ccc(OC)c(OC)c3C)nc(N)c2cc1OC | -34% |
| CCOC(=O)C1CCCN(Cc2c(C(=O)N3CCCCC3)nc3c(C)cccn23)C1 (centres unmarked) | -4.3% |
| CN(C)Cc1c(O)ccc2oc(Cc3ccccc3)cc12 | -38% |
| CCN(Cc1ccccc1)C(c1cccs1)c1nnnn1C1CCCCC1 (centres unmarked) | -1.66% |
| COc1cccc(NC(=O)c2ccccc2-c2nc(-c3ccc(F)cc3)no2)c1 | 8.36% |
| O=C(CC1C(=O)NCCN1Cc1ccccc1C(F)(F)F)NC1CCC1 (centres unmarked) | 15.2% |
| CCC(C)C(NC(=O)c1ccccc1)C(=O)Nc1ccc(S(=O)(=O)Nc2cc(C)nc(C)n2)cc1 (centres unmarked) | 8.24% |
| COc1ccc(CC(=O)O/N=C(\N)c2ccncc2)cc1 | -2.59% |
| CCn1cc(C(=O)N2CCCC2)c(=O)c2cc(S(=O)(=O)N3CC(C)CC(C)C3)ccc21 (centres unmarked) | 6.43% |
